# Laboratory results from PubChem BioAssay AID1768 (National Center for Advancing Translational Sciences (NCATS), 2009).
# Out of some 270,000 compounds screened, about 620 (0.23%) were called active. The shares of active, inactive and inconclusive entries below differ from those in the screen. The call rests on the fitted dose curve; in most records, active means well fitted inhibition curve with a large enough effect in the polarisation, with a control signal flat (not every such curve was filed as active); inconclusive means small, poorly fitted or top-dose-only effect, or effect the other way, or a change in a side signal; inactive means no such curve, though single readings can be large or run the other way; the % refers to the polarisation. Where the call is inconclusive, the potency comes from a doubtful curve fit. A note “side channel” means that the fit belongs to a control or component signal, not to the main read-out.
# Molecular target: Menin (Homo sapiens) (UniProt O00255)
# Assay: qHTS Assay for Inhibitors Targeting the Menin-MLL Interaction in MLL Related Leukemias: Competition With Texas Red Labeled MLL-derived Mutant Peptide; on FP activity change, negative = inhibition: % of control where 0% means no effect
# Details: fluorescence polarization; FP activity change, negative = inhibition: at 61.6 µM (top of the series)
# Potency means the concentration at half of the fitted maximal effect; tags describe the fitted curve by direction and shape or compound fluorescence and quenching.
# Chain of UniProt O00255 (O00255 whole entry, looked up): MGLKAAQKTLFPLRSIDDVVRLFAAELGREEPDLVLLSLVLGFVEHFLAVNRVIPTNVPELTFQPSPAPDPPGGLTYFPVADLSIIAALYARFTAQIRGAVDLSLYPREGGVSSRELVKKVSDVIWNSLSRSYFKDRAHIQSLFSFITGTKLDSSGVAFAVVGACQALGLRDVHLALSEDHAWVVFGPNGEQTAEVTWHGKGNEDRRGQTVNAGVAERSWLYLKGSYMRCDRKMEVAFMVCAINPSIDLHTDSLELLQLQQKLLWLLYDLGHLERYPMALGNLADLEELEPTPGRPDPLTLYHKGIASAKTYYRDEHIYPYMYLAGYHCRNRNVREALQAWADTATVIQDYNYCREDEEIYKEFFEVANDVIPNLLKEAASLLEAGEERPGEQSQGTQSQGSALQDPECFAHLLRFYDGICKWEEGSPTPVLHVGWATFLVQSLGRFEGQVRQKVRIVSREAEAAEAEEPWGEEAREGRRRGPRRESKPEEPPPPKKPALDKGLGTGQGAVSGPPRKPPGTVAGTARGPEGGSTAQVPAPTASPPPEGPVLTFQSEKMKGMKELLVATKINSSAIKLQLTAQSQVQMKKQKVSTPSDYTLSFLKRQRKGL
SMILES,Potency,"FP activity change, negative = inhibition"
Cn1c(=O)n(CCCOc2ccc(Cl)cc2)c2ccccc21,"inconclusive: 39.8 µM [fluorescent, side channel, single point]",
O=C(O)c1ccc(Cl)c(S(=O)(=O)N(Cc2ccccc2)c2ccc(F)cc2)c1,"inconclusive: 25.1 µM [quencher, side channel, partial curve]",
CC(=O)c1ccc2c(c1)C1C=CCC1C(c1ccncc1)N2 (stereo unspecified),"inconclusive: 28.2 µM [quencher, side channel, partial curve]",
O=C(CNC(=S)NC(=O)c1ccccc1Br)c1ccccc1,"inconclusive: 31.6 µM [fluorescent, side channel, single point]",
O=c1c2ccccc2nc2c3ccccc3c(NCc3ccco3)nn12,"inconclusive: 31.6 µM [quencher, side channel, single point]",
O=C(O)CCC/C=C\C[C@H]1C(=O)C[C@@H](O)[C@@H]1/C=C/[C@@H](O)CCc1ccccc1,,inactive: 6.28%
Cc1ccc(Cl)c2c(N=Nc3ccccc3)c(O)[nH]c12,"inconclusive: 2.82 µM [quencher, side channel, full curve]",
O=C(CSc1ccc(-c2nc3ccccc3[nH]2)cn1)Nc1ccc(S(=O)(=O)N2CCCC2)cc1,"inconclusive: 8.91 µM [inhibitor, single point]",
COc1ccc(CC(=O)NC(C)c2nnc(SCC(=O)Nc3ccccc3F)n2C)cc1 (stereo unspecified),,inactive: 1.84%
O=C(Cn1nc(-c2ccccc2Cl)ccc1=O)Nc1ccc(Br)cc1,,inactive: -1.77%
O=c1cc(N2CCCCC2)c(-c2ccccc2)nn1Cc1ccc(F)cc1,"inconclusive: 22.4 µM [fluorescent, side channel, partial curve]",
Cc1[nH]c(=O)[nH]c(=O)c1S(=O)(=O)NCCc1ccc(S(N)(=O)=O)cc1,"inconclusive: 8.91 µM [inhibitor, single point]",
CCOC(=O)c1sc(=S)n(-c2cc(OC)ccc2OC)c1N,"inconclusive: 31.6 µM [quencher, side channel, single point]",
Cc1ccccc1C(=O)NC1CCN(C(=O)N(c2ccccc2)c2ccccc2)CC1,"inconclusive: 3.16 µM [inhibitor, partial curve, poor fit]",
CC(=O)c1ccc(N2CCN(C(=O)CCC(=O)c3cccs3)CC2)cc1,"inconclusive: 5.01 µM [fluorescent, side channel, full curve]",
CCN(CCC(=O)Nc1ccc(Br)c(C)c1)Cc1ccccc1,"inconclusive: 39.8 µM [fluorescent, side channel, single point]",
CC(=O)/C(=C\Nc1ccc(OCc2ccccc2)cc1)c1ccccc1,,inactive: 7.73%
COc1cccc(NS(=O)(=O)c2ccc(Br)s2)c1,"inconclusive: 28.2 µM [quencher, side channel, single point]",
CC1(C)CC(N2CCCC2)=CC(=[N+]2CCCC2)C1,,inactive: 7.09%
Cc1cc(Oc2cc(N)cc([N+](=O)[O-])c2)ccc1Cl,"inconclusive: 35.5 µM [quencher, side channel, single point]",
COc1ccc(Nc2nc(NCc3ccco3)nc(N/N=C/c3ccccc3F)n2)cc1,"inconclusive: 12.6 µM [quencher, side channel, partial curve]",

SMILES,Potency,"FP activity change, negative = inhibition"
Oc1c(N=NC(=S)Nc2ccccc2F)c2ccccc2n1Cc1ccccc1Cl,"inconclusive: 14.1 µM [quencher, side channel, partial curve]",
CCCCCCCCCC(=O)OCC(CO)OC(=O)CCCCCCCCC (stereo unspecified),,inactive: -11.8%
O=C1CC(c2ccccc2)C(=O)N1c1cccc(O)c1 (stereo unspecified),"inconclusive: 25.1 µM [quencher, side channel, single point]",
c1cncc(-c2nnc(-c3cccnc3)nn2)c1,,inactive: 9.04%
CCO[C@@H]1OC(C(=O)N2CCCCCCC2)=C[C@H](c2ccc3c(c2)OCO3)[C@H]1CCCO,"inconclusive: 14.1 µM [fluorescent, side channel, partial curve]",
Cc1ccc2nc(-c3sc4nc(C)cc(C)c4c3N)[nH]c2c1,"inconclusive: 20 µM [quencher, side channel, partial curve]",
CCOc1ccc2[nH]c(=O)c(CN(Cc3cccs3)Cc3nnnn3C(C)(C)C)cc2c1,,inactive: -7.01%
CCOC(=O)CNC(=O)C1CCN(S(=O)(=O)c2ccc(-c3nn[nH]n3)cc2)CC1,"inconclusive: 39.8 µM [inhibitor, single point]",
CCc1ccc(NC(=O)CSc2nc(NS(=O)(=O)c3ccccc3)cc(=O)[nH]2)cc1,"inconclusive: 39.8 µM [fluorescent, side channel, single point]",
COc1cc(N)c(Cl)cc1C(=O)CCC1CCN(CCNS(C)(=O)=O)CC1,"inconclusive: 2.51 µM [inhibitor, full curve]",
COc1ccc(CN2CCNC(=O)C2CC(=O)NCc2ccc(C)s2)c(OC)c1 (stereo unspecified),"inconclusive: 15.8 µM [fluorescent, side channel, partial curve]",
CCc1nnc(NC(=O)c2ccc(N(C)S(=O)(=O)c3ccccc3)cc2)s1,"inconclusive: 39.8 µM [inhibitor, single point]",
O=C(O)CCN1C(=O)/C(=C\c2ccc(-c3nc4ccccc4s3)o2)SC1=S,,inactive: 27.8%
CCOc1ccc(-c2ccc(/C=C3/C(=N)N4C=CSC4=NC3=O)o2)c([N+](=O)[O-])c1,"inconclusive: 14.1 µM [quencher, side channel, partial curve]",
COCCn1c(=NC(=O)c2cc(-c3cccs3)nc3ccccc23)sc2cc(S(N)(=O)=O)ccc21,"inconclusive: 2.82 µM [quencher, side channel, single point]",
COc1ccc(N(CC(=O)NCc2ccccc2)S(C)(=O)=O)cc1,,inactive: 1.21%
O=C(N/N=C/c1cccc2ccccc12)c1cccs1,"inconclusive: 39.8 µM [fluorescent, single point]",
CCOP(=O)(OCC)c1nc(-c2ccc(Cl)cc2Cl)oc1N1CCOCC1,"inconclusive: 11.2 µM [inhibitor, partial curve]",
O=C(N/N=C/c1ccco1)C12CC3CC(CC(C3)C1)C2,"inconclusive: 17.8 µM [inhibitor, single point]",
Cc1ccc(/C(C#N)=C\c2ccc(N3CCOCC3)o2)cc1,,inactive: -3.98%
Cc1cccc(CN(CC(=O)N/N=C/c2cccs2)S(=O)(=O)c2ccc(Cl)cc2)c1,"inconclusive: 12.6 µM [inhibitor, partial curve]",

SMILES,Potency,"FP activity change, negative = inhibition"
COc1ccc(CNC(=O)CNC(c2ccccc2)c2ccccc2)cc1OC,"inconclusive: 20 µM [fluorescent, side channel, partial curve]",
Cc1ccc(C(=O)N/C(=C/c2ccco2)C(=O)NCCCn2ccnc2)cc1,,inactive: -10.4%
CC1(C)Oc2ccc3ccc(=O)oc3c2C(N2CCCCC2)C1O (stereo unspecified),"inconclusive: 39.8 µM [inhibitor, single point]",
O=C1c2cccc3c(O)ccc(c23)C(=O)N1c1ccc(Cl)cc1,"inconclusive: 10 µM [quencher, side channel, partial curve]",
c1ccc(-c2nc(NCc3cccnc3)c3oc4ccccc4c3n2)cc1,"inconclusive: 15.8 µM [quencher, side channel, partial curve]",
O=C(COc1ccccc1Cl)Nc1cc(NC(=O)COc2ccccc2Cl)cc(C(=O)O)c1,"inconclusive: 25.1 µM [quencher, side channel, single point]",
FC(F)(F)c1nc2ccccc2nc1N/N=C/c1ccc(Cl)cc1,"inconclusive: 28.2 µM [quencher, side channel, partial curve]",
C/C(=N\Nc1nc(C)c(C)s1)c1ccc([N+](=O)[O-])cc1,"inconclusive: 17.8 µM [quencher, side channel, partial curve]",
O=Nc1onc(-c2ccc([N+](=O)[O-])cc2)c1NO,"inconclusive: 28.2 µM [quencher, side channel, single point]",
CC1=C(C(=O)OC(C)C)C(c2cccnc2)C2=C(CCCC2=O)N1 (stereo unspecified),,inactive: -2.93%
O=C(c1cccs1)N(Cc1cc2ccccc2[nH]c1=O)CC1CCCO1 (stereo unspecified),"inconclusive: 39.8 µM [inhibitor, single point]",
Cc1cc(C)c(S(=O)(=O)NCCn2c(C)cc3ccccc32)c(C)c1,"inconclusive: 35.5 µM [fluorescent, side channel, single point]",
CCOc1ccc(NC(=O)CCC(=O)NNC(=O)Nc2cccc(Cl)c2)cc1,"inconclusive: 35.5 µM [inhibitor, single point]",
COc1cccc(C(=O)N/N=C(\C)c2ccc(NC(=O)Cc3ccccc3)cc2)c1OC,"inconclusive: 35.5 µM [fluorescent, side channel, single point]",
CN(C)C1=NCCN1CCC1CCCC1,,inactive: 2.55%
C=CC[n+]1c(-c2ccc(Cl)cc2Cl)csc1Nc1ccc(NC(C)=O)cc1,"inconclusive: 39.8 µM [quencher, side channel, single point]",
N#Cc1ccc(-c2ccccc2)nc1SCC(=O)c1cccc(Cl)c1,"inconclusive: 7.94 µM [quencher, side channel, full curve]",
COc1cccc(/C=N/Nc2ccccc2C(=O)O)c1O,"inconclusive: 12.6 µM [quencher, side channel, partial curve]",
Cc1cc2cc(CNC(=S)NC3CCCCC3)ccc2n1C,"inconclusive: 39.8 µM [quencher, side channel, single point]",
